From the supplement of paper PMC10126150
Values marked as one replicate rest on one cluster of the flow cell; about a third of the high ones do not repeat.

System: ATP
Experiment: switch fluorescence ratio, 500 uM ATP over buffer (Cy3 cluster intensity, sum of 5 cycles each) (fold (ratio)); higher = stronger signal-on switching upon ATP binding; sequences stand for … in TCGTCGGCAGCGTCAGATGTGTATAAGAGACAGTTTTTTTTTTTTTTTTTTTTTTTTT…TC
Details: aptamer strand: ATP DNA aptamer (quencher-CACCTGGGGGAGTATTGCGGAGGAAGG + anchor), 100 nM annealed; ATP concentration: 500 uM; one replicate
Outline: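 After annealing to 100 nM quencher-labelled ATP aptamer, Cy3-labelled switching-strand clusters on a modified Illumina MiSeq flow-cell were imaged in selection buffer. A second image followed after 15 min with 500 uM ATP at 22 °C, and five such buffer/ATP cycles were done, each separated by NaOH stripping and re-annealing. The fluorescence ratio, averaged per switch-domain sequence, is summed target-cycle over summed buffer-cycle Cy3 intensity per cluster, with clusters outside 100-1000 RFU excluded.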
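Further: ATP exposure 15 min at 22 °C before imaging.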

## TGATAGCAGA
  switch fluorescence ratio: 0.963

## ATCTCGACGG
  switch fluorescence ratio: 1.02

## CGAGGGCTGT
  switch fluorescence ratio: 0.985

## AAGGACCTTT
  switch fluorescence ratio: 0.983

## AAAGCATTAT
  switch fluorescence ratio: 1.11

## GAAGTAACCC
  switch fluorescence ratio: 1.05

## GAATGCCTT
  switch fluorescence ratio: 1.01

## CGTGCGTCAC
  switch fluorescence ratio: 1.07

## AAAGGCGGAG
  switch fluorescence ratio: 0.968

## GAATTTCCGG
  switch fluorescence ratio: 1.05

## CCGTTATGGA
  switch fluorescence ratio: 0.97

## CGACCAGTGT
  switch fluorescence ratio: 1.32

## CGCCTAGACT
  switch fluorescence ratio: 1.11

## TATAGGCGG
  switch fluorescence ratio: 1.02

## AACATCAACA
  switch fluorescence ratio: 1.09

## TGTTGGACTT
  switch fluorescence ratio: 1.08

## AACGCCTAGG
  switch fluorescence ratio: 1.04

## GCCTCACGAC
  switch fluorescence ratio: 1.44

## GGTCGAGGTG
  switch fluorescence ratio: 0.99

## GGGACATATC
  switch fluorescence ratio: 1.08

## TCACATGGGT
  switch fluorescence ratio: 0.976

## CATTCGTCGT
  switch fluorescence ratio: 0.985

## CATCTCAGTT
  switch fluorescence ratio: 1.05

## GAGGTCCCAG
  switch fluorescence ratio: 0.972

## TCTCCGTATT
  switch fluorescence ratio: 4.78

## CGAATGGCTA
  switch fluorescence ratio: 0.968

## CGCGCCTTGC
  switch fluorescence ratio: 1.15

## ACCCGCGGGC
  switch fluorescence ratio: 1.06

## CAGAGGATT
  switch fluorescence ratio: 0.969

## GTCATAAGTT
  switch fluorescence ratio: 0.973

## ACTTGTTTC
  switch fluorescence ratio: 0.997

## GACTTTAACA
  switch fluorescence ratio: 1.06

## GATGTATAGT
  switch fluorescence ratio: 0.954

## GGATTTTAGT
  switch fluorescence ratio: 0.96

## TCTCAGATGG
  switch fluorescence ratio: 0.993

## TTAAATGAGG
  switch fluorescence ratio: 0.992

## TACGTTTACC
  switch fluorescence ratio: 1.24

## ATAGGTAGAG
  switch fluorescence ratio: 0.936

## TAAGTCTACG
  switch fluorescence ratio: 0.935

## TTGTGGTGCC
  switch fluorescence ratio: 0.982

## TTTACCATGG
  switch fluorescence ratio: 1

## CTCTTCCAGT
  switch fluorescence ratio: 1.06

## ATAAGATGGG
  switch fluorescence ratio: 0.976

## ACACAGCGAC
  switch fluorescence ratio: 1.98

## TGAACCGCGG
  switch fluorescence ratio: 0.987

## GCAATAGCTC
  switch fluorescence ratio: 3.81

## TGACCCGCCA
  switch fluorescence ratio: 1.5

## ATAAAGGCT
  switch fluorescence ratio: 1.03

## TTATGCGTA
  switch fluorescence ratio: 1.03

## TTCAGACGCT
  switch fluorescence ratio: 1.48

## CGCCGATGCA
  switch fluorescence ratio: 1.02

## ACTAAAAACA
  switch fluorescence ratio: 1.02

## GGTAAGAAAA
  switch fluorescence ratio: 0.982

## CACACCCGGG
  switch fluorescence ratio: 1.06

## GATAACCAAT
  switch fluorescence ratio: 0.983

## CATGTGCTGG
  switch fluorescence ratio: 1.01

## TTTCATAG
  switch fluorescence ratio: 1

## TGCAGTTTGG
  switch fluorescence ratio: 0.966

## AAATTTAAA
  switch fluorescence ratio: 1.01

## ACGAATACTC
  switch fluorescence ratio: 3.42

## TTATGCGGCA
  switch fluorescence ratio: 1.05

## CGTGTAGGTG
  switch fluorescence ratio: 0.998

## ATGGGATTTC
  switch fluorescence ratio: 0.99

## CGATTAACGG
  switch fluorescence ratio: 1.01

## CGGTCGTCTG
  switch fluorescence ratio: 1.01

## ACTCTTAGAT
  switch fluorescence ratio: 1.11

## CTGAGCAGCA
  switch fluorescence ratio: 1.16

## TTCGCACAAT
  switch fluorescence ratio: 1.17

## CGAGCGGTTT
  switch fluorescence ratio: 1.01

## AACACCGCAG
  switch fluorescence ratio: 1.62

## CGTGCATTTG
  switch fluorescence ratio: 1.07

## CGTGCACGTT
  switch fluorescence ratio: 1

## CGTAGTATCC
  switch fluorescence ratio: 1.09

## ACTGTAGATT
  switch fluorescence ratio: 1.15

## AAGGAGCATT
  switch fluorescence ratio: 1.03

## GGCTGAAAGC
  switch fluorescence ratio: 1.04

## CTGCTGGTTT
  switch fluorescence ratio: 1.03

## ACGGAAGTTT
  switch fluorescence ratio: 1

## GCGGATGCAG
  switch fluorescence ratio: 0.925

## GGCGAAAGAT
  switch fluorescence ratio: 0.977

## CGAACCGTCG
  switch fluorescence ratio: 1.05

## GAGGGATGAT
  switch fluorescence ratio: 0.934

## AATAGCAAGG
  switch fluorescence ratio: 1.04

## GCCGAGAGAC
  switch fluorescence ratio: 1.5

## AGTCTGCGGG
  switch fluorescence ratio: 0.997

## AAGGGCGATC
  switch fluorescence ratio: 1.02

## CACGACTCCC
  switch fluorescence ratio: 1.15

## ATATGCGACC
  switch fluorescence ratio: 1.2

## CGTGAAACGT
  switch fluorescence ratio: 1.03

## GACTCGGATA
  switch fluorescence ratio: 1.04

## TCTGAGGATA
  switch fluorescence ratio: 1.08

## AACAGGGTAG
  switch fluorescence ratio: 1.03

## TATATAGGAT
  switch fluorescence ratio: 1.06

## GAATCGGGG
  switch fluorescence ratio: 1.04

## CACTTACGCG
  switch fluorescence ratio: 1

## TCTGGTCAGA
  switch fluorescence ratio: 0.996

## TGGATCTTGT
  switch fluorescence ratio: 0.98

## GCGTGTCTAA
  switch fluorescence ratio: 1

## TGTGAGGATT
  switch fluorescence ratio: 1.41

## TACTTTTGC
  switch fluorescence ratio: 0.969

## TGCTCAGAGA
  switch fluorescence ratio: 1.04

## AGCAGTAT
  switch fluorescence ratio: 1.14

## GCTGGCGAAT
  switch fluorescence ratio: 1.04

## TTTGGAAGAC
  switch fluorescence ratio: 0.988

## GTATTCTGGT
  switch fluorescence ratio: 0.998

## AGCCGCACTA
  switch fluorescence ratio: 2.56

## ACATGGAGCG
  switch fluorescence ratio: 1.01

## CTCTGTGGCT
  switch fluorescence ratio: 1

## TAAGCCACAG
  switch fluorescence ratio: 1.12

## ATATTACGGT
  switch fluorescence ratio: 1.07

## GACCCACCCT
  switch fluorescence ratio: 1.37

## TTCGATAGA
  switch fluorescence ratio: 1.01

## GAGTGAGAA
  switch fluorescence ratio: 0.97

## GTTCTCCGTC
  switch fluorescence ratio: 1.16

## GGACAGGTTG
  switch fluorescence ratio: 0.954

## ACCGGTTT
  switch fluorescence ratio: 1.01

## GTTGTTGGAT
  switch fluorescence ratio: 1.01

## CAGGGAAGGA
  switch fluorescence ratio: 1.03

## TCGAGGTATG
  switch fluorescence ratio: 0.996

## TATTACACT
  switch fluorescence ratio: 1.03

## CCGGCGATGA
  switch fluorescence ratio: 1.51

## AAGAGATGGC
  switch fluorescence ratio: 1.19

## TTTCATGCCA
  switch fluorescence ratio: 1

## TTATCTTTAT
  switch fluorescence ratio: 1

## ACGGGGTACT
  switch fluorescence ratio: 1.06

## CGCATCCTTA
  switch fluorescence ratio: 1.06

## TATAATCTGG
  switch fluorescence ratio: 0.965

## AGAATGCTGG
  switch fluorescence ratio: 1.03

## CAAGGCTTAC
  switch fluorescence ratio: 1.77

## GAATACATGG
  switch fluorescence ratio: 1.02

## TTAGATGCCG
  switch fluorescence ratio: 0.987

## AACTAGAACA
  switch fluorescence ratio: 1.01

## CAGGAAGAGC
  switch fluorescence ratio: 1.03

## CATTCAAGGA
  switch fluorescence ratio: 0.982

## CGAATGCTGG
  switch fluorescence ratio: 1

## ATAAAGTGGG
  switch fluorescence ratio: 0.99

## GAAAGGCTCA
  switch fluorescence ratio: 1

## CGGTTCAATG
  switch fluorescence ratio: 0.996

## AGTTCTCGCG
  switch fluorescence ratio: 1.03

## ACGCTTTGCC
  switch fluorescence ratio: 1

## TCTTTGGGGC
  switch fluorescence ratio: 0.985

## CGGCGTGGTT
  switch fluorescence ratio: 0.927

## CGGGCCATAA
  switch fluorescence ratio: 1.02

## AGGTTTCATC
  switch fluorescence ratio: 1.04

## GAATTTGAAG
  switch fluorescence ratio: 0.98

## GCCGTAACCG
  switch fluorescence ratio: 1

## GGTTCCGTGT
  switch fluorescence ratio: 0.99

## TAGAGAGCC
  switch fluorescence ratio: 0.998

## CTAACAGACA
  switch fluorescence ratio: 1.01

## TTGGTAGTAC
  switch fluorescence ratio: 1.32

## TTCACTACA
  switch fluorescence ratio: 1.07

## CAGAATACTT
  switch fluorescence ratio: 1.01

## ATCAAATGAG
  switch fluorescence ratio: 0.991

## CAATTTGCA
  switch fluorescence ratio: 0.996

## TCTCATTGTT
  switch fluorescence ratio: 0.968

## AGCGTTAACG
  switch fluorescence ratio: 1

## GTTAATATTC
  switch fluorescence ratio: 1.03
